Source: paper PMC12820563, “FoxP3 forms a head-to-head dimer in vivo and stabilizes its multimerization on adjacent microsatellites”
Some of the results follow.

What follows are sequences tested against T1, MBP-FoxP1dN (Mus musculus, UniProt P58462 326-579) (assay: PD-seq (MBP pull-down with sequencing); 20 mM Tris-HCl pH 7.5, 100 mM NaCl, 1.5 mM MgCl2, 0.4 uM protein, 0.1 uM dsDNA library, 30 min, room temperature, amylose pull-down; high values mean tight binding). Settings: protein: recombinant; tags: His6-MBP; chain copies: 2; dsDNA, one strand shown.
T1 sequence: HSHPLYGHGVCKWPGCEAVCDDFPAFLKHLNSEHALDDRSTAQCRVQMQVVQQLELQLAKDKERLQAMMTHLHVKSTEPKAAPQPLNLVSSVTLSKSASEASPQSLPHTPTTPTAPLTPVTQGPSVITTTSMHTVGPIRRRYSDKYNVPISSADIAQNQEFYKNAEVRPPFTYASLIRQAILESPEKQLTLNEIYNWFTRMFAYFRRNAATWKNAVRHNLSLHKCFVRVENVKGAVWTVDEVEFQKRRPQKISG
Procedure, shortened: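 His6-MBP-tagged mouse FoxP3 or FoxP1 fragment lacking the N-terminus, expressed in E. coli, was mixed at 0.4 µM with 0.1 µM Klenow-filled double-stranded degenerate DNA library. Incubation was 30 min at room temperature in Tris pH 7.5 buffer with NaCl and MgCl2. Complexes were caught on amylose resin and washed three times; DNA was released with proteinase K, PCR-barcoded and Illumina-sequenced. Binding is reads-per-million enrichment, pull-down over input, with replicates pooled.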

Row | Sequence | binding signal
1 | GATGATTGTTCTCCCAGCTGATGAATTCCCTACCTCGAGTAAACAAATTTTCCTAATCTTTCTGTTCAAGCGCCATCTAC | 0.836 RPM ratio (pull-down/input)
2 | GATGATTGTTCTCCCAGCTGATGAATTTTTCCTATCGAGTAAACAAATTTTCCTAATCTTTCTGTTCAAGCGCCATCTAC | 0.945 RPM ratio (pull-down/input)
3 | GATGATTGTTCTCCCAGCTGATGAATTCAAGTCGTCGAGTAAACAAATTTTCCTAATCTTTCTGTTCAAGCGCCATCTAC | 0.874 RPM ratio (pull-down/input)
4 | GATGATTGTTCTCCCAGCTGATGAATTATGCAGGTCGAGTAAACAAATTTTCCTAATCTTTCTGTTCAAGCGCCATCTAC | 0.96 RPM ratio (pull-down/input)
5 | GATGATTGTTCTCCCAGCTGATGAATTATGGATTTCGAGTAAACAAATTTTCCTAATCTTTCTGTTCAAGCGCCATCTAC | 0.915 RPM ratio (pull-down/input)
6 | GATGATTGTTCTCCCAGCTGATGAATTTAACTGGTCGAGTAAACAAATTTTCCTAATCTTTCTGTTCAAGCGCCATCTAC | 0.855 RPM ratio (pull-down/input)
7 | GATGATTGTTCTCCCAGCTGATGAATTAAAAGTATCGAGTAAACAAATTTTCCTAATCTTTCTGTTCAAGCGCCATCTAC | 1.13 RPM ratio (pull-down/input)
8 | GATGATTGTTCTCCCAGCTGATGAATTTTATTGCTCGAGTAAACAAATTTTCCTAATCTTTCTGTTCAAGCGCCATCTAC | 1.21 RPM ratio (pull-down/input)
9 | GATGATTGTTCTCCCAGCTGATGAATTATCGAGCTCGAGTAAACAAATTTTCCTAATCTTTCTGTTCAAGCGCCATCTAC | 0.907 RPM ratio (pull-down/input)
10 | GATGATTGTTCTCCCAGCTGATGAATTCGACATATCGAGTAAACAAATTTTCCTAATCTTTCTGTTCAAGCGCCATCTAC | 0.996 RPM ratio (pull-down/input)
11 | GATGATTGTTCTCCCAGCTGATGAATTCCGTAGGTCGAGTAAACAAATTTTCCTAATCTTTCTGTTCAAGCGCCATCTAC | 0.73 RPM ratio (pull-down/input)
12 | GATGATTGTTCTCCCAGCTGATGAATTCGACTCGTCGAGTAAACAAATTTTCCTAATCTTTCTGTTCAAGCGCCATCTAC | 0.816 RPM ratio (pull-down/input)
13 | GATGATTGTTCTCCCAGCTGATGAATTTGGGAATTCGAGTAAACAAATTTTCCTAATCTTTCTGTTCAAGCGCCATCTAC | 0.96 RPM ratio (pull-down/input)
14 | GATGATTGTTCTCCCAGCTGATGAATTCGGCTTCTCGAGTAAACAAATTTTCCTAATCTTTCTGTTCAAGCGCCATCTAC | 0.747 RPM ratio (pull-down/input)
15 | GATGATTGTTCTCCCAGCTGATGAATTAGGATCTTCGAGTAAACAAATTTTCCTAATCTTTCTGTTCAAGCGCCATCTAC | 0.888 RPM ratio (pull-down/input)
16 | GATGATTGTTCTCCCAGCTGATGAATTCAAGAAGTCGAGTAAACAAATTTTCCTAATCTTTCTGTTCAAGCGCCATCTAC | 0.844 RPM ratio (pull-down/input)

Row | Sequence | binding signal
17 | GATGATTGTTCTCCCAGCTGATGAATTAAGGGGATCGAGTAAACAAATTTTCCTAATCTTTCTGTTCAAGCGCCATCTAC | 0.803 RPM ratio (pull-down/input)
18 | GATGATTGTTCTCCCAGCTGATGAATTGTAAGGCTCGAGTAAACAAATTTTCCTAATCTTTCTGTTCAAGCGCCATCTAC | 0.862 RPM ratio (pull-down/input)
19 | GATGATTGTTCTCCCAGCTGATGAATTGGTGCCATCGAGTAAACAAATTTTCCTAATCTTTCTGTTCAAGCGCCATCTAC | 0.972 RPM ratio (pull-down/input)
20 | GATGATTGTTCTCCCAGCTGATGAATTACGGGACTCGAGTAAACAAATTTTCCTAATCTTTCTGTTCAAGCGCCATCTAC | 0.921 RPM ratio (pull-down/input)
21 | GATGATTGTTCTCCCAGCTGATGAATTGAGTAGATCGAGTAAACAAATTTTCCTAATCTTTCTGTTCAAGCGCCATCTAC | 0.923 RPM ratio (pull-down/input)
22 | GATGATTGTTCTCCCAGCTGATGAATTTGACACGTCGAGTAAACAAATTTTCCTAATCTTTCTGTTCAAGCGCCATCTAC | 0.846 RPM ratio (pull-down/input)
23 | GATGATTGTTCTCCCAGCTGATGAATTAAGACTTTCGAGTAAACAAATTTTCCTAATCTTTCTGTTCAAGCGCCATCTAC | 0.891 RPM ratio (pull-down/input)
24 | GATGATTGTTCTCCCAGCTGATGAATTATACCAATCGAGTAAACAAATTTTCCTAATCTTTCTGTTCAAGCGCCATCTAC | 1.2 RPM ratio (pull-down/input)
25 | GATGATTGTTCTCCCAGCTGATGAATTTTCGTAATCGAGTAAACAAATTTTCCTAATCTTTCTGTTCAAGCGCCATCTAC | 1.46 RPM ratio (pull-down/input)
26 | GATGATTGTTCTCCCAGCTGATGAATTACATAACTCGAGTAAACAAATTTTCCTAATCTTTCTGTTCAAGCGCCATCTAC | 1.32 RPM ratio (pull-down/input)
27 | GATGATTGTTCTCCCAGCTGATGAATTCGACAAATCGAGTAAACAAATTTTCCTAATCTTTCTGTTCAAGCGCCATCTAC | 1.13 RPM ratio (pull-down/input)
28 | GATGATTGTTCTCCCAGCTGATGAATTACGGGTATCGAGTAAACAAATTTTCCTAATCTTTCTGTTCAAGCGCCATCTAC | 1.04 RPM ratio (pull-down/input)
29 | GATGATTGTTCTCCCAGCTGATGAATTGTGTACATCGAGTAAACAAATTTTCCTAATCTTTCTGTTCAAGCGCCATCTAC | 2 RPM ratio (pull-down/input)
30 | GATGATTGTTCTCCCAGCTGATGAATTGGCCGCTTCGAGTAAACAAATTTTCCTAATCTTTCTGTTCAAGCGCCATCTAC | 0.879 RPM ratio (pull-down/input)
31 | GATGATTGTTCTCCCAGCTGATGAATTGCACATTTCGAGTAAACAAATTTTCCTAATCTTTCTGTTCAAGCGCCATCTAC | 1.54 RPM ratio (pull-down/input)
